Source: the supplement of paper PMC3334620
Over roughly 33,000 sequences, “E-score (-0.5 to 0.5)” has its median near -0.016; the highest 2% begin near 0.32. Some of the results follow.

target: T1, Stp1 (UniProt B3LFK1); assay: PBM E-score (8-mer binding enrichment) (E-score (-0.5 to 0.5)); higher = stronger / more preferred TF binding; most listed sequences are background and not binding sites; conditions: protein concentration: 200 nM; construct: GST-full length
T1 sequence: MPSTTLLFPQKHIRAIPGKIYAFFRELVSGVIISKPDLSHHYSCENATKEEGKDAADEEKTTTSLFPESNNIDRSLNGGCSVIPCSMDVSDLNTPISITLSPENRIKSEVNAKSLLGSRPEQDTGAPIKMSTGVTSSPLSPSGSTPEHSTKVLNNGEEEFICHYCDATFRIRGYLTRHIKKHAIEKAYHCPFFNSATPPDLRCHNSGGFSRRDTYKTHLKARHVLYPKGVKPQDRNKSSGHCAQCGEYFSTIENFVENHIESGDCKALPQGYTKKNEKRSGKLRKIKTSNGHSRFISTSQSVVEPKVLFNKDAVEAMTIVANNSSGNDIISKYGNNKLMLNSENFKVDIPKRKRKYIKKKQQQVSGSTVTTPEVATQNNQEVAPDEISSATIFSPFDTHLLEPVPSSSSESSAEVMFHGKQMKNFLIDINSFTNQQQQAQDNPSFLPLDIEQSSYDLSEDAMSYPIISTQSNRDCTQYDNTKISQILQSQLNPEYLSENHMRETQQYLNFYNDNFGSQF
Procedure, shortened: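 Universal all-10-mer Agilent arrays, double-stranded by primer extension on fresh or once-stripped slides, were probed with about 100-200 nM GST-tagged yeast transcription factors made by PURExpress. Fluorescent anti-GST detected bound protein, and masliner normalised the scans. E-scores from the Universal PBM Analysis Suite were given to each ungapped eight-base word pooled with its reverse complement.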

Sequence	PBM E-score
CTGGTAAA	-0.074
ATTGAACG	0.0706
ATCGTTGC	-0.0972
CAGCCTAG	-0.116
AAGCAAAT	0.00716
ATCACGAG	-0.0594
AGGACCAG	-0.309
AGCGTAAG	0.057
GCTATCCC	-0.189
ACGCTTTG	0.13
CTCGTATA	-0.0941
TGTATGAA	0.053
AACTTCAT	0.092
GGGATTCA	-0.0172
CCTGTTCG	-0.146
CCGAAAGG	0.0838
CACGACGG	0.0249
CGATAGCC	-0.0294
AGGTGAAT	0.0945
ACATCCAG	-0.0916
ACTGCCTA	0.0366
AAAAGTAA	0.173
CCACCTCG	-0.244
AAGGCGCA	0.316
AACCGGCC	-0.0677

Sequence	PBM E-score
GTGACTGA	-0.171
GCGAGAAA	-0.0771
GTAAACGA	0.148
CTGGGGCA	-0.165
TAACGTCA	0.092
AGAACCCC	-0.341
AGAGAAAC	-0.00716
CCAATGCA	-0.144
GAAAGATC	0.0377
GGGGGGAA	-0.343
CTGTATGC	-0.0205
CAATAGGC	0.218
CAATGAGG	-0.0804
AGTGCTAT	-0.287
GAGTAACC	-0.00115
GGAAGGTA	-0.0503
GAGGGGCA	-0.00367
CACGTCTC	0.0792
ATAAACCG	0.0403
CTAATGCA	0.195
CGTCGGAG	-0.179
GGGCGCCC	0.255
GACGCTCC	-0.189
CATGCTAA	-0.112
GAACGTGA	-0.101

Sequence	PBM E-score
GCCTCGTA	0.346
ACCCTTTC	-0.15
ACAGACGC	-0.0122
CACCTGCA	-0.138
GTAGCCGA	-0.238
CAACGCAG	-0.23
ATGCTGAG	-0.302
GAATAACC	-0.0652
AACCGACC	-0.117
ACACACGG	0.356
GCGCACCC	-0.0647
GCCTGAAA	0.159
TAAGACGA	-0.0174
ATGAGAAA	0.134
AGCGATGA	0.0954
CAGGTTTA	-0.0589
ATGAGCAT	0.0935
CCGCCTGA	0.114
AATAAGCC	0.0484
CGCAGTTA	0.0737
ACTGGTCT	-0.231
CGGGACCG	-0.0461
GTATCGCA	-0.0303
GAATCACC	-0.0222
CCGCTGAC	-0.0983

Sequence	PBM E-score
AGTGAAAA	0.124
ACCTAGGT	-0.275
CCCGCACG	0.222
ACTAGACT	-0.393
AGTGTCAA	0.0189
ACGGTGCC	0.396
ACAAAGTC	0.00883
CAGATATC	-0.089
ACGTAGTG	-0.155
AGACGCCT	0.191
GATTACCA	-0.0233
AAAGTAGT	0.0721
CATTAGGG	-0.0698
CAGAGTGG	0.0287
AGAAACAG	0.0862
ATCCCAAA	0.0422
TCAATCGA	0.106
CCTACTAC	0.036
CCAGGCCC	-0.286
ATTGCCCC	0.00493
GCCGATTA	0.13
GCGTCAGA	-0.0729
AACTACTA	0.177
ACATCACA	0.0308
GGAACCCC	-0.312

Sequence	PBM E-score
CTGACAAG	-0.0431
GCTTTACC	0.0342
CCTCAAAA	-0.115
CTGTCAAG	0.154
CCTCGTAC	0.0933
AACTTTTA	0.268
CCTAGGTC	-0.211
ATGAGTAC	0.0493
GGCCTACC	-0.185
GCCGTGCA	0.478
TAACTGGA	-0.038
ATCAAAAG	0.173
AGGCCAGG	-0.194
AAGACGCC	0.321
CTAATATA	0.174
CCCAAAGG	-0.0153
CTCACATC	0.00305
CGTAAGTA	-0.0266
AGATAAGC	-0.029
AGTAAGCC	-0.163
CCAATTCG	0.142
ATTTCGCA	0.111
AAGGTCTG	-0.133
CCTCTTAA	0.148
CATTGCTA	0.111

Sequence	PBM E-score
CCACTACA	-0.106
AACTCTAC	-0.212
ACAAGTAG	-0.337
AGGGAGAA	-0.178
CAACCAAA	0.113
ACTCACGC	0.205
GGTCATCA	-0.0874
CATCGTAA	0.171
ACTCTATA	0.0603
AAGAAAGT	0.0242
AGGTGTCC	-0.0375
GATAATGA	0.0865
GACCCATA	-0.215
AACCGTTA	-0.199
GTGCAATA	-0.0679
AAATGCGC	0.148
AGACAATG	-0.0306
AACCGCCG	0.324
AACAGGAC	-0.103
TCCTTTCA	0.132
AGTAAAGC	0.21
CATATATA	0.256
GAGCTACA	-0.237
AGGGACCC	-0.293
CGCCGTTC	0.464

Sequence	PBM E-score
CCTGAGAC	-0.248
ACGATCGG	-0.106
AGACCAGC	-0.25
ACTCCGTA	0.15
CGGACGAC	-0.0612
CAAGATAA	0.195
ATAATGGG	-0.029
ATATGTAA	0.12
TATCAGCA	-0.0134
ACCCAAGG	0.0251
TAACGGGA	-0.127
CAAGATGA	-0.0617
ATCGACTA	-0.126
CAAGTTCG	-0.119
ACGGAACT	0.131
ATCGAAAT	0.0933
AGAGATCA	-0.173
CTGTAATC	-0.169
CCAAACCG	0.014
GTCAAGAC	-0.195
ACCTAAAG	0.0737
AGACGTTC	-0.0284
